Assay results taken from paper PMC6919601, “Identification of Plasmodium dipeptidyl aminopeptidase allosteric inhibitors by high throughput screening” (PLoS ONE, 2019).
The campaign covered roughly 110,000 compounds. About 230 (0.21%) showed an effect of 50% or more. The list shows a part of the results.

Each compound was assayed against DPAP1 (Plasmodium falciparum, UniProt Q8IIJ9) (assay: primary screen, percent inhibition; read by cleavage of a fluorogenic dipeptide substrate; higher = more effect of the substance).
DPAP1, sequence (Q8IIJ9 whole entry, looked up): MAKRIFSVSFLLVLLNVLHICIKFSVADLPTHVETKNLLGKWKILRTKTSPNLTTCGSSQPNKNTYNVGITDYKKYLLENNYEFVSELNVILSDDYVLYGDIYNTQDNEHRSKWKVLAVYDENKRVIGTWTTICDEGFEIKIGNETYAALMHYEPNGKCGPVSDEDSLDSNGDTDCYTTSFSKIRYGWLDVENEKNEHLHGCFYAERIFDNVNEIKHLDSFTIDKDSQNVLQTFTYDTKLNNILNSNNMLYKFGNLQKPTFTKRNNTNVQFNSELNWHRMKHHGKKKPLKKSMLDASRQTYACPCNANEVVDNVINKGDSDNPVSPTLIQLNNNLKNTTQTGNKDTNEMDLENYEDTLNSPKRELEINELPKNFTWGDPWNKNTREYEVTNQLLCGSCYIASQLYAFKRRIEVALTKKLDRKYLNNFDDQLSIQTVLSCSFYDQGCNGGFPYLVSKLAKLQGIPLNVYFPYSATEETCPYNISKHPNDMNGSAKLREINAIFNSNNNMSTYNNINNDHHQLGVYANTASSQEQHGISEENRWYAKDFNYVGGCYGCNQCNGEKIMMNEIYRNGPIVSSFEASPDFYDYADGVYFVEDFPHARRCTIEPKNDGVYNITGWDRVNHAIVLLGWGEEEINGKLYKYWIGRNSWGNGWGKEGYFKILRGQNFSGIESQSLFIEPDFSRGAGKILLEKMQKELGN
Design: species or system P. falciparum D10 trophozoite lysates; single well
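Note: 30 min substrate incubation versus DMSO and 10 µM JCP410 controls.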

| Compound | % Inhibition @ 10 uM |
| --- | --- |
| CCOC(=O)N1CCC2(CC1)C(C#N)=C(N)Oc1c2sc2nc(C)cc(C)c12 | 0.726% |
| CCCCn1c(=O)c(C#N)cc2c(=O)n3cc(C)ccc3nc21 | 1.12% |
| Cc1cc2oc(C(=O)N(Cc3sccc3C)C3CCS(=O)(=O)C3)c(C)c2cc1Cl (stereo not shown) | 5.29% |
| Cc1nn(CC(=O)NCCCN2CCC(Cc3ccccc3)CC2)c(=O)c2cccn12 | -5.78% |
| COCC(=O)n1nc(-c2ccccc2)nc1NCc1ccccc1 | 2.31% |
| COc1ccc(CC(=O)N2CCN(c3ccccc3)CC2)cc1 | 0.135% |
| COc1ccc(-c2c(C)nn3c(NCCCc4ccccc4)cc(C)nc23)cc1OC | 1.55% |
| Cc1ccc(NS(=O)(=O)c2cc(C(=O)O)ccc2C)cc1 | 2.43% |
| c1ccc(OCCn2c(C3CCCO3)nc3ccccc32)cc1 (stereo not shown) | -2.99% |
| Cc1cccc(C)c1N(CC(=O)N1CCCCCC1)S(C)(=O)=O | -4.59% |
| Cc1ccccc1-n1nc2c(c1NC(=O)C(C)(C)C)CS(=O)(=O)C2 | -3.83% |
| CC(=O)c1cc2c(cc1NC(=O)c1ccc(Oc3ccccc3)cc1)OCO2 | -6.66% |
| COc1ccccc1N1CCN(C/C(Cl)=C/c2ccccc2)CC1 | 0.472% |
| Cc1oc(-c2ccccc2F)nc1CS(=O)(=O)CC(=O)NCc1ccco1 | -3.7% |
| CCCCN(C)Cc1c(C)nc2ccc(OCC)cc2c1O | 5.37% |
| Cc1ccc(C(=O)Nc2c(C(=O)N3CCCCC3)cnn2-c2ccccc2)cc1 | 2.17% |
| Cn1c(=O)[nH]c(=O)c2[nH]c(N3CCCCC3)nc21 | 0.635% |
| CCCc1ccc(OCC(=O)Nc2cccc(Cl)c2C)cc1 | -9.84% |
| Cc1sc(NC(=O)COc2ccccc2)c(C(N)=O)c1-c1ccc(C(C)(C)C)cc1 | 11% |
| N#CC1=C(N)Oc2c(c(=O)oc3ccccc23)C12C(=O)Nc1ccccc12 (stereo not shown) | -5.62% |
| CC(=O)OCC12COCC(C(C)=CC1C)C2C (stereo not shown) | -1.86% |
| Sc1nnc(Cc2ccccc2)n1-c1ccccc1 | 10.4% |
| COCCCNC(=O)C(=O)NCc1ccncc1 | -1.6% |
| CCOC(=O)c1c(NC(=O)C2CCCN2S(=O)(=O)c2cccc3nsnc23)sc(C)c1C (stereo not shown) | -4.24% |
| O=C(/C=C1\NCCN\C1=C/C(=O)c1ccc(Cl)cc1)c1ccc(Cl)cc1 | 4.75% |
| OC(COc1ccc2ccccc2c1Br)Cn1cnc2ccccc21 (stereo not shown) | 0.685% |
| CCOc1ccc(S(=O)(=O)N2CCC(C)CC2)c2ccccc12 | -3.6% |
| Cc1ccc(S(=O)(=O)N(CC(=O)NCc2ccco2)c2ccc(C)cc2C)cc1 | 2.37% |
